Source: PMC5906591

Target: His-HigB2Ab toxin (N-terminal His-tag fusion, from pET-His-HigBA) (Acinetobacter baumannii)
Assay: SEC

HigA2Ab antitoxin, untagged (co-expressed from pET-His-HigBA)
stoichiometry N (toxin:antitoxin): 1.5
